Positions count from the first letter of the chain named. These are yes or no findings as the source states them, for the method shown. Binding seen in cells or lysates may run through a third protein. Some results given as binding are weak or reduced against the parent protein; the word gives no strength. Where a sequence is shown, tags or fusion partners need not be part of it. Each block holds one molecule with its values, some of them ahead of it.
Experiments:
Assay in all cases: co-IP; anti-HA magnetic beads, 4 °C, at least 2 h; Triton X-100 lysis buffer (1% Triton X-100, 150 mM NaCl, 50 mM Tris-HCl pH 7.5); iRhom1/2 DKO HEK293T cells transfected with HA-iRhom2 variants, with GFP-KRAS G12V or GFP (Fig. 1C), alone (Fig. 6C) or with V5-FRMD8 (Fig. 6F); Western blot
[1] = target: T1, iRhom2 RKR-only mutant (HA-tagged) (human) (UniProt Q6PJF5)
T1 sequence: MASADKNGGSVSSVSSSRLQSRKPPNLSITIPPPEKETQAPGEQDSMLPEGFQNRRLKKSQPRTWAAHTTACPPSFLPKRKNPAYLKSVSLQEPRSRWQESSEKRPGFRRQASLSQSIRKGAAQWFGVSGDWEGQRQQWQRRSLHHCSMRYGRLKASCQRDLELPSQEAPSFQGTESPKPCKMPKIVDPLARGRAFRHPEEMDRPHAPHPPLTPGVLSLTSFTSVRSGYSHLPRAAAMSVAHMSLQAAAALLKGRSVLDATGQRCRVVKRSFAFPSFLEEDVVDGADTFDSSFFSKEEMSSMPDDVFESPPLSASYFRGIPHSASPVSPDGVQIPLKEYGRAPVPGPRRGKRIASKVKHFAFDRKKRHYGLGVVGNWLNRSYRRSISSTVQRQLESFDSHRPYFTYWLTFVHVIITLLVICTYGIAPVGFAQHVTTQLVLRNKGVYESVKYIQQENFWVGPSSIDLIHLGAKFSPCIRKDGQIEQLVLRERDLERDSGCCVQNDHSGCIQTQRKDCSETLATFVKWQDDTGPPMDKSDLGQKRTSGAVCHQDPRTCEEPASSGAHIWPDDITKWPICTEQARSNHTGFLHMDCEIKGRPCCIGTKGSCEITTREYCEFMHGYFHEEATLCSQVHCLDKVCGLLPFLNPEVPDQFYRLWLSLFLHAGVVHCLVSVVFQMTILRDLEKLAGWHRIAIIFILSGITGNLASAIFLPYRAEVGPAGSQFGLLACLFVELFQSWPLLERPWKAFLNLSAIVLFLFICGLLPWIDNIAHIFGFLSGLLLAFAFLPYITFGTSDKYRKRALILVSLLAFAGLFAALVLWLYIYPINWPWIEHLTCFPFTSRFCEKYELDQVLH

Amino acid sequences for entries named in this document (tags omitted).
UniProt P62258: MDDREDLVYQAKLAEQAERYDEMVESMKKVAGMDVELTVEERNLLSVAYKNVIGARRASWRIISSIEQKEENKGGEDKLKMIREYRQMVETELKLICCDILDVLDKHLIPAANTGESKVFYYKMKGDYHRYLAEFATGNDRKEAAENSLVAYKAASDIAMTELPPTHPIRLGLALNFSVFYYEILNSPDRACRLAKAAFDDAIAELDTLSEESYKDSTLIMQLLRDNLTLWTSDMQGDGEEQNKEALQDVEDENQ
UniProt P53618: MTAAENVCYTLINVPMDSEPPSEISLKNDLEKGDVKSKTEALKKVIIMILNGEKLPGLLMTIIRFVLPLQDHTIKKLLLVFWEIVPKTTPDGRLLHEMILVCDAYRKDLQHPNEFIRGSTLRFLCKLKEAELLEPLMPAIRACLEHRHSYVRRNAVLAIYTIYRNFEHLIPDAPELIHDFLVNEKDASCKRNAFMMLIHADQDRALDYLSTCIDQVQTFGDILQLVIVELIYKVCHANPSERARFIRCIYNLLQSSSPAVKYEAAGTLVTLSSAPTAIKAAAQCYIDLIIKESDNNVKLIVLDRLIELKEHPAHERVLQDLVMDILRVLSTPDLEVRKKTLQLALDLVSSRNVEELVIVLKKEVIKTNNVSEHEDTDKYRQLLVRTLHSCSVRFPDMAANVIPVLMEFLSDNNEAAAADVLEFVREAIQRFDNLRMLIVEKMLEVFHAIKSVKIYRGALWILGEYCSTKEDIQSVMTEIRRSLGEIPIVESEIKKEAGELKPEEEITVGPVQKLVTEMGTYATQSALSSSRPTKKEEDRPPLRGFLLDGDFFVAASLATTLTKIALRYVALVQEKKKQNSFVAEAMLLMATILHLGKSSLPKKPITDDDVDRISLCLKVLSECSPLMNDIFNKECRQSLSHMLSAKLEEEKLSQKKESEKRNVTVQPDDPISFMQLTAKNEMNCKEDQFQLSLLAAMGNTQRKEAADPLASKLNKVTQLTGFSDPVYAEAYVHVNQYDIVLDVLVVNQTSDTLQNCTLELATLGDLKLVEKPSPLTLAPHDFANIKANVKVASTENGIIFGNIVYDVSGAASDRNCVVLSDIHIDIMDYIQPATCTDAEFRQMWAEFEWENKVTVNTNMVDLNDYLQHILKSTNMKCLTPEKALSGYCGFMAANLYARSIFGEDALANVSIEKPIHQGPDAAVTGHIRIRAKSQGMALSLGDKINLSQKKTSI
UniProt P51812: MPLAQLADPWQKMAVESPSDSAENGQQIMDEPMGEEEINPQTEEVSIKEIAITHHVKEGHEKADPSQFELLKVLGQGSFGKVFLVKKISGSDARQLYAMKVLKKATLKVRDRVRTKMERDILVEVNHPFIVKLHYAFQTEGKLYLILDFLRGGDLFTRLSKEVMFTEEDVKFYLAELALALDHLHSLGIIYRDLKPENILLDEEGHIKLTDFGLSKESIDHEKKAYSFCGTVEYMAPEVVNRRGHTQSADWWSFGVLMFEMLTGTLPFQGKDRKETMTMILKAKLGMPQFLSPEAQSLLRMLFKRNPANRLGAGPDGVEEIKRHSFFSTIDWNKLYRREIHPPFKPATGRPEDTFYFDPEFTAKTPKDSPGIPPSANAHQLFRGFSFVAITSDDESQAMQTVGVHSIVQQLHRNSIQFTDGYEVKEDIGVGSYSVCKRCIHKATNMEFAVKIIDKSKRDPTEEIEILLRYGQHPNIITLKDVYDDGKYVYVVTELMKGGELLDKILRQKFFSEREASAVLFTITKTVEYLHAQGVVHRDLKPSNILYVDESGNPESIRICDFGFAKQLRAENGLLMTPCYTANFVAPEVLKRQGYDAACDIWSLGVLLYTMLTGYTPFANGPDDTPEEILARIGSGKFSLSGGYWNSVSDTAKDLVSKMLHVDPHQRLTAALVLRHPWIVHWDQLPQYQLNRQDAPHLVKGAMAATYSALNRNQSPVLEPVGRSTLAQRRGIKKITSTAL

[2] = target: T2, iRhom2 wild type (HA-tagged) (human) (UniProt Q6PJF5)
T2 sequence: T1 sequence with A235R, A236K, A237R

[3] = target: T3, iRhom2 PRRKRM/As mutant (HA-tagged) (human) (UniProt Q6PJF5)
T3 sequence: T1 sequence with P233A, R234A, M238A

[4] = target: T4, iRhom2 F307A (HA-tagged) (human) (UniProt Q6PJF5)
T4 sequence: T1 sequence with A235R, A236K, A237R, F307A

binding [1]: binds | binding [2]: binds | binding [3]: binds
Molecule: 14-3-3 epsilon, endogenous (from UniProt P62258 1-255)

binding [1]: binds | binding [2]: binds | binding [3]: binds
B1: V5-tagged FRMD8 (protein, UniProt Q9BZ67 1-464)
chain: MDGTEGSAGQPGPAERSHRSSVSSVGARAADVLVYLADDTVVPLAVENLPSLSAHELHRAVREVLQLPDIALDVFALWLVSPLLEVQLKPKHQPYKLGRQWPELLLRFTSAPDDDVAMDEPFLQFRRNVFFPKRRELQIHDEEVLRLLYEEAKGNVLAARYPCDVEDCEALGALVCRVQLGPYQPGRPAACDLREKLDSFLPAHLCKRGQSLFAALRGRGARAGPGEQGLLNAYRQVQEVSSDGGCEAALGTHYRAYLLKCHELPFYGCAFFHGEVDKPAQGFLHRGGRKPVSVAISLEGVHVIDSREKHVLLGLRFQELSWDHTSPEEEEPILWLEFDGDSEGTPVNKLLKIYSKQAELMSSLIEYCIELSQAAEPAGPQDSATGSPSDPSSSLAPVQRPKLRRQGSVVSSRIQHLSTIDYVEDGKGIRRVKPKRTTSFFSRQLSLGQGSYTVVQPGDSLEQG

Continued, molecule first:

Molecule: beta-COP, endogenous (from UniProt P53618 1-953)
binding [1]: binds | binding [2]: binds | binding [3]: binds

Molecule: ribosomal protein S6 kinase alpha-3 (RSK2), endogenous (from UniProt P51812 1-740) (enzyme)
binding [2]: binds | binding [4]: no binding

From paper PMC12516561 (2025)
